{
  "source": "PubChem BioAssay AID686978",
  "about": "(National Center for Advancing Translational Sciences (NCATS), 2013)",
  "note": "About 64,000 (15%) of roughly 420,000 compounds were called active. Inconclusive means that the source gave no clear call. Such entries were picked first, then a sample of the others. The call rests on the fitted dose curve; in most records, active means well fitted inhibition curve with a large enough effect; inconclusive means small, poorly fitted or top-dose-only effect; inactive means flat fitted curve, though single readings scatter. No potency is given beside an inconclusive call; the fits are too rough. On the % scale 0 is the no-effect control and ±100 the full control effect; potency means the concentration at half of the fitted maximal effect; tags describe the fitted curve by direction and shape.",
  "data": [
    {"assay": "qHTS for Inhibitors of human tyrosyl-DNA phosphodiesterase 1 (TDP1): qHTS in cells in absence of CPT; further: nearly all actives have a fitted effect of over 55% in size", "conditions": "DT40 Tdp1-/- hTDP1 cells, no CPT, ATP luminescence, 48 h; activity change, negative = growth inhibition: at 46.2 µM (top of the series) unless noted", "summary_of_the_method": "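Luminescent ATP content (CellTiter-Glo) served as the growth readout. Knockout chicken DT40 cells expressing human TDP1 were exposed to compounds without camptothecin for a minimum 48 hr at 37 °C.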", "values": [
      {"smiles": "O=C1OC(c2ccco2)=N/C1=C\\c1ccc(-c2cccc(C(F)(F)F)c2)o1", "Potency": "active: 23.1 µM"},
      {"smiles": "Cc1nc2c(-c3ccc(Cl)cc3)cnn2c(N)c1-c1ccc(F)cc1", "Potency": "inconclusive [inhibitor, single point]"},
      {"smiles": "CC(C)(C)c1ccc(-n2ncc3c2CCCC3NC(=O)c2ccco2)cc1", "note": "(stereo not given)", "Potency": "active: 14.6 µM"},
      {"smiles": "Cc1ccc(/C=N/NC(=O)CN2CCN(S(=O)(=O)c3ccc(Br)cc3)CC2)s1", "Potency": "inconclusive [inhibitor, partial curve]"},
      {"smiles": "Cc1cc(N2CCOCC2)nc(C(C)C)n1", "activity change, negative = growth inhibition": "inconclusive: -12.4% [inhibitor]"},
      {"smiles": "Cc1cc(C)cc(NC(=O)CSc2nc(CSc3ccc(Cl)cc3)cc(=O)[nH]2)c1", "Potency": "inactive"},
      {"smiles": "O=C(c1ccc2c(c1)OCCO2)N1CCN(c2ncc(C(F)(F)F)cc2Cl)CC1", "Potency": "active: 16.4 µM"},
      {"smiles": "CCCOc1cccc(C2C(C(=O)c3ccc(C)o3)=C(O)C(=O)N2c2nc(C)c(C(C)=O)s2)c1", "note": "(stereo not given)", "Potency": "active: 23.1 µM"},
      {"smiles": "COc1ccc(NC(=O)c2c(C)oc3ccc(O)c(CN4CCCCCC4)c23)cc1Cl", "Potency": "inconclusive [inhibitor, partial curve, poor fit]"},
      {"smiles": "COc1ccc(/C=C/c2nc(C#N)c(NCCc3ccccc3)o2)cc1OC", "Potency": "inconclusive [inhibitor, single point]"},
      {"smiles": "O=C(O)C1OC(C(=O)O)C(C(=O)O)C1C(=O)O", "note": "(stereo not given)", "Potency": "inactive"},
      {"smiles": "CCOC(=O)c1c(CS(=O)(=O)c2ccccc2)n(C)c2cc(Br)c(O)cc12", "Potency": "inconclusive [inhibitor, single point]"},
      {"smiles": "CC1(C)CC(=O)c2sc(N3CCCCC3)nc2C1", "Potency": "inactive"},
      {"smiles": "C/C(CC(=O)Nc1ccc(Cl)c(Cl)c1)=N\\NC(=O)C(=O)N1CCCCC1", "Potency": "inactive"},
      {"smiles": "CC(=O)Nc1ccc(S(=O)(=O)Nc2cc(-c3cn4ccccc4n3)ccc2C)cc1", "Potency": "active: 20.6 µM"},
      {"smiles": "O=c1[nH]c2ccc(Cl)cc2c(-c2ccccc2)c1N1CCN(CCO)CC1", "Potency": "inconclusive [inhibitor, single point]"},
      {"smiles": "O=[N+]([O-])c1nn(-c2ccc(Cl)cc2)n(O)c1=NCc1ccccc1Cl", "Potency": "inconclusive [inhibitor, partial curve, poor fit]"},
      {"smiles": "CCOC(=O)C1=C(C)NC2=C(C(=O)c3ccccc32)C1c1cccnc1", "note": "(stereo not given)", "Potency": "inconclusive [inhibitor, single point]"},
      {"smiles": "Cc1cccc(C(=O)Nc2c(C(=O)NCc3ccc(Cl)cc3)sc3nc(C)cc(C)c23)c1", "Potency": "active: 25.9 µM"},
      {"smiles": "CCN(CC)S(=O)(=O)N1CCC(C(=O)NC(C)CCc2ccccc2)CC1", "note": "(stereo not given)", "Potency": "inconclusive [inhibitor, partial curve]"},
      {"smiles": "Cc1cccc(C)c1-n1nnnc1C1c2ccccc2C(=O)N1CCc1ccc(O)cc1", "note": "(stereo not given)", "Potency": "inconclusive [inhibitor, single point]"},
      {"smiles": "N#Cc1ccc[n+](CC(=O)c2ccc(O)c(O)c2)c1", "Potency": "inactive"},
      {"smiles": "COC(=O)C1=C(C)N(CCc2ccccc2)C(=O)C1", "Potency": "inconclusive [inhibitor, single point]"},
      {"smiles": "COc1ccccc1OCC(=O)Nc1cccc(S(=O)(=O)NC2=NCCCCC2)c1", "Potency": "inactive"},
      {"smiles": "COc1ccc(-c2cc(=O)oc3cc(OCC(=O)NCCCn4ccnc4)ccc23)cc1", "Potency": "inconclusive [inhibitor, single point]"},
      {"smiles": "COc1ccccc1NC(=O)C1=C(C)Nc2nnnn2C1c1cc(Br)c(O)c(OC)c1", "note": "(stereo not given)", "Potency": "inactive"},
      {"smiles": "C#CCOc1c(Br)cc(/C=C2/C(=O)ON=C2C)cc1OCC", "Potency": "inconclusive [inhibitor, single point]"},
      {"smiles": "COc1cc2cc(C(c3nnnn3Cc3ccc(F)cc3)N3CCCCCC3)c(=O)[nH]c2cc1OC", "note": "(stereo not given)", "Potency": "inconclusive [inhibitor, single point]"},
      {"smiles": "CCCCN1C[C@H](c2ccc(OC)cc2)[C@@H](CC(=O)Nc2ccc(OC)cc2)C1=O", "Potency": "inconclusive [inhibitor, single point]"},
      {"smiles": "COc1ccc(C(=O)N2CCOCC2)cc1S(=O)(=O)N1CCCc2ccccc21", "Potency": "inconclusive [inhibitor, single point]"},
      {"smiles": "CCCn1c(C(O)c2ccc(OCC)cc2)nc2ccccc21", "note": "(stereo not given)", "Potency": "inconclusive [inhibitor, single point]"},
      {"smiles": "CCCn1c(N)c(N(CCOC)C(=O)C2CCCC2)c(=O)[nH]c1=O", "Potency": "inactive"},
      {"smiles": "COc1ccc(-c2nsc(NC(=O)C(C)Oc3ccc(Cl)c(C)c3)n2)cc1", "note": "(stereo not given)", "Potency": "inconclusive [inhibitor, single point]"},
      {"smiles": "Cc1ccsc1/C=N/NC(=O)CN1CCN(S(=O)(=O)c2ccc(Br)cc2)CC1", "Potency": "inconclusive [inhibitor, partial curve]"},
      {"smiles": "Clc1ccc(Nc2nc(Nc3ccc(Cl)cc3)nc(N3CCOCC3)n2)cc1", "Potency": "inconclusive [inhibitor, partial curve, poor fit]"},
      {"smiles": "COc1ccc(NC(=O)c2cnc(Nc3ccc(C)c(Cl)c3)c3ccccc23)cc1OC", "Potency": "inactive"},
      {"smiles": "O=S(=O)(c1ccc(OCC(O)CN2CCN(c3ccc(F)cc3)CC2)cc1)N1CCOCC1", "note": "(stereo not given)", "Potency": "inconclusive [inhibitor, partial curve]"},
      {"smiles": "CCn1cc(C(=O)NCc2ccc3c(c2)OCO3)c(=O)c2cc(F)c(N3CCN(C(=O)c4ccco4)CC3)cc21", "Potency": "active: 10.3 µM"},
      {"smiles": "COc1ccc(OC)c(-c2csc(N(CC3CCCO3)C(=O)C3CCCCC3)n2)c1", "note": "(stereo not given)", "Potency": "active: 18.4 µM"},
      {"smiles": "O=C(Nc1nccs1)c1ccc2c(=O)n3c(nc2c1)CCCCC3", "Potency": "active: 16.4 µM"},
      {"smiles": "COc1cccc(OCc2cc(C(=O)N3CCN(C4CCCCC4)C(=O)C3)no2)c1", "Potency": "inactive"},
      {"smiles": "CC(C)NC(=O)NNc1c(Cl)cncc1Cl", "Potency": "inactive"},
      {"smiles": "CN1C(C(=O)c2ccccc2)=C(N)c2ccccc2S1(=O)=O", "Potency": "inactive"},
      {"smiles": "C[C@H]1CN([C@@H](C)CO)C(=O)CCCn2nncc2CO[C@H]1CN(C)C(=O)C1CCCCC1", "Potency": "inconclusive [inhibitor, partial curve]"},
      {"smiles": "COc1ccc(OC)c(CCNC(=O)CN2C(=O)COc3ccc(S(=O)(=O)N4CCOCC4)cc32)c1", "Potency": "inactive"}
    ]}
  ]
}
